{"source": "PubChem BioAssay AID463173", "about": "(ICCB-Longwood Screening Facility, Harvard Medical School, 2010)", "note": "Screen size: about 52,000 compounds; about 4,300 (8.3%) were called active. No stated cut-off is given here; in the data, active means survival mostly below about 52% (no sharp cut-off); inactive means mostly above about 56%. This is one part of the list."}
{"tested_on": "DeltatarO mutant", "assay": "growth inhibition of S. aureus wild type versus tarO mutant, primary screen, teichoic acid synthesis inhibitors, RN4220, OD600 (AID 463173)", "conditions": "OD600, 18 h, active compounds read low, screened at 18.75 µg/mL (by protocol)"}
{"smiles": "O=C(NC1CCCC1)C1CCCN(S(=O)(=O)c2ccc(-n3cnnn3)cc2)C1", "note": "(stereo not drawn)", "survival": "inactive: 72%"}
{"smiles": "CCc1ccc(NC(=O)c2cc3c([nH]c2=O)CC(C)(C)CC3=O)cc1", "survival": "inactive: 78%"}
{"smiles": "CCOc1ccc2oc(=O)cc(CN3CCN(c4ccccc4)CC3)c2c1", "survival": "inactive: 83%"}
{"smiles": "N#Cc1c[nH]n2c(NC3CCCCC3)c(-c3cccc(Cl)c3)nc12", "survival": "inactive: 50%"}
{"smiles": "COc1ccc(CCN2C(=O)N(c3ccccc3)C(=O)C2CC(=O)Nc2ccccc2)cc1", "note": "(stereo not drawn)", "survival": "inactive: 71%"}
{"smiles": "Cc1ccc(-c2nc(C)c(CCNC(=O)C(=O)Nc3ccc4c(c3)OCO4)s2)cc1", "survival": "inactive: 84%"}
{"smiles": "CCCOc1ccc(C2c3c(oc4ccccc4c3=O)C(=O)N2c2nc(C)c(C(=O)OCC)s2)cc1", "note": "(stereo not drawn)", "survival": "inactive: 60%"}
{"smiles": "COc1ccc(S(=O)(=O)NCc2ccc(C(=O)NCc3ccccc3)cc2)cc1", "survival": "inactive: 85%"}
{"smiles": "Cc1cc(C)c(NC(=O)CCC(=O)N2Cc3ccccc3Oc3ncccc32)c(C)c1", "survival": "inactive: 78%"}
{"smiles": "O=C1CC(NNc2ccccc2)C(=O)N1c1cccc(Cl)c1", "note": "(stereo not drawn)", "survival": "inactive: 49%"}
{"smiles": "COC(=O)c1ccccc1NC(=O)Cn1c(=O)n(CCCC(=O)NCCc2ccc(OC)c(OC)c2)c(=O)c2ccccc21", "survival": "inactive: 106%"}
{"smiles": "Cc1ccc(C)c(NC(=O)NCc2ccc3c(c2)CCN3C(=O)c2ccccc2)c1", "survival": "inactive: 55%"}
{"smiles": "CCCC(=O)Oc1ccc2ccc(=O)oc2c1", "survival": "inactive: 89%"}
{"smiles": "Cc1ccc(N=C2CCCN2Cc2ccccc2)c(C#N)c1", "survival": "inactive: 98%"}
{"smiles": "Cc1ccc2c(c1)-c1c(cnn1CC(=O)N1CCN(c3cc(Cl)ccc3C)CC1)CO2", "survival": "inactive: 49%"}
{"smiles": "CC(C)C(NS(=O)(=O)c1cccc2cccnc12)C(=O)Nc1ccc(OC(F)(F)F)cc1", "note": "(stereo not drawn)", "survival": "inactive: 85%"}
{"smiles": "O=C(c1ccccc1)c1ccc2nc(Nc3cc(Cl)ccc3O)c3nncn3c2c1", "survival": "inactive: 118%"}
{"smiles": "COC(=O)C[N+]1(Cc2ccco2)CCCCC1", "survival": "inactive: 107%"}
{"smiles": "O=C1C=CC(=O)N1c1ccccc1F", "survival": "inactive: 77%"}
{"smiles": "CC(=O)c1ccc(N2CCN(C(=O)c3ccc(Cn4c(=O)[nH]c5ccccc5c4=O)cc3)CC2)cc1", "survival": "inactive: 100%"}
{"smiles": "CCN1CCC(N(Cc2ccc(F)cc2)C(=O)Nc2cc(Cl)ccc2C(=O)OC)CC1", "survival": "inactive: 85%"}
{"smiles": "CC(C)c1ccc(NC(=O)C2(C)Cc3ccccc3C(=O)O2)cc1", "note": "(stereo not drawn)", "survival": "inactive: 106%"}
{"smiles": "COc1ccc(-n2c(/C=C/c3c(C)[nH]c4ccccc34)nc3ccccc3c2=O)cc1", "survival": "inactive: 168%"}
{"smiles": "Cc1nn(C)c2c1c(-c1ccccc1)cc(=O)n2Cc1ccc(Cl)cc1", "survival": "inactive: 87%"}
{"smiles": "O=C(NC1CC1)C1CCCN1S(=O)(=O)c1ccccc1", "note": "(stereo not drawn)", "survival": "inactive: 78%"}
{"smiles": "COc1cccc(CNc2nccn(-c3ccc(OC)c(OC)c3)c2=O)c1", "survival": "inactive: 99%"}
{"smiles": "COc1ccccc1C(=O)Nc1ccc(OCc2cc(=O)n3ccc(C)cc3n2)cc1", "survival": "inactive: 89%"}
{"smiles": "CCOc1ccc(S(=O)(=O)N2CCC(N3CCN(Cc4ccc(C)cc4)C(=O)C3=O)CC2)cc1", "survival": "inactive: 77%"}
{"smiles": "CC1=C(C(=O)OC(C)C)C(C)C(C(=O)OC(C)C)=C(C)N1", "survival": "inactive: 79%"}
{"smiles": "COc1cccc(CN2C(=O)CN(C3CCCCC3)C(=O)C2c2ccc(OC)c(OC)c2)c1", "note": "(stereo not drawn)", "survival": "inactive: 67%"}
{"smiles": "CCOc1ccc(CNC(=O)C2CCN(S(=O)(=O)c3cn(C)cn3)CC2)cc1OC", "survival": "inactive: 71%"}
{"smiles": "COc1ccc2c(c1)c1c(c(=O)n(-c3ccccc3C)c(=O)n1CC(=O)N1CCCC1)n2C", "survival": "inactive: 117%"}
{"smiles": "COc1ccc(-c2cc(C(F)(F)F)c(C#N)c(SCC(=O)Nc3ccccc3F)n2)cc1", "survival": "inactive: 67%"}
{"smiles": "CCC(C)Sc1c(C(C)C)cnc2c1c(=O)n(C)c(=O)n2C", "note": "(stereo not drawn)", "survival": "inactive: 100%"}
{"smiles": "CCc1nnc(NC(=O)CCC(=O)N2CCC(O)CC2)s1", "survival": "inactive: 88%"}
{"smiles": "COc1ccc(-c2nc3scc(CCNC(=O)c4cc(OC)cc(OC)c4)n3n2)cc1", "survival": "inactive: 94%"}
{"smiles": "CC(C)N1CCc2nc(SCC(=O)Nc3cccc(F)c3)[nH]c(=O)c2C1", "survival": "inactive: 86%"}
{"smiles": "Nc1cc(N)nc(Sc2ncnc3ccccc23)n1", "survival": "inactive: 85%"}
{"smiles": "CCOc1ccc(C(=O)OCc2cc(=O)n3cc(C)sc3n2)cc1", "survival": "inactive: 90%"}
{"smiles": "O=C(O)CSCCc1ccccn1", "survival": "inactive: 72%"}
{"smiles": "CCCCCn1cc2c(c1-c1ccc(Cl)cc1)c(=O)n(C)c(=O)n2C", "survival": "inactive: 84%"}
{"smiles": "COc1ccc2c(c1)C=C(C(=O)NCc1cc(Br)ccc1OC)CO2", "survival": "inactive: 73%"}
{"smiles": "CCOC(=O)C1CCCN(S(=O)(=O)c2ccc3[nH]c(=O)oc3c2)C1", "note": "(stereo not drawn)", "survival": "inactive: 84%"}
{"smiles": "COc1ccccc1NC(=O)c1sc2ncn(Cc3ccccc3Cl)c(=O)c2c1C", "survival": "inactive: 99%"}
{"smiles": "CCc1ccccc1NC(=O)c1sc(-n2nc(C)c(Cc3ccc4c(c3)OCO4)c2C)nc1C", "survival": "inactive: 97%"}
{"smiles": "O=C(Cn1c2ncccc2c(=O)n1-c1ccccc1)Nc1ccc(Cl)cc1C(F)(F)F", "survival": "inactive: 90%"}
{"smiles": "COCc1cc(C)nc2sc3c(c12)NC(c1ccc(O)cc1)N(c1ccc(C)cc1)C3=O", "note": "(stereo not drawn)", "survival": "inactive: 60%"}
{"smiles": "O=C(OCc1cccc(C(F)(F)F)c1)c1ccc(-c2nnn(Cc3ccc(F)cc3)n2)cc1", "survival": "inactive: 71%"}
{"smiles": "CCn1c(=N)c(C(=O)NC2CCCC2)cc2c(=O)n3ccccc3nc21", "survival": "inactive: 49%"}
{"smiles": "Cc1nn(C(=O)c2ccccc2)c(C)c1S(=O)(=O)N1CCCCCC1", "survival": "inactive: 89%"}
{"smiles": "CCN(C(=O)c1cn(-c2ccc(OC)cc2)c(=O)c2ccccc12)c1cccc(Cl)c1", "survival": "inactive: 103%"}
{"smiles": "O=C(CSC1=Nc2ccccc2N=C(c2ccc(F)cc2)C1)NCc1ccccc1Cl", "survival": "inactive: 95%"}
{"smiles": "CCCCOc1ccc(CNC(=O)Cc2ccc(NC(=O)N3CCSc4ncccc43)cc2)cc1", "survival": "inactive: 119%"}
{"smiles": "CCNc1oc(-c2ccc(COc3ccc(Cl)cc3)o2)nc1C#N", "survival": "inactive: 82%"}
{"smiles": "Cc1nn(-c2ccc(N3CCOCC3)nn2)c(C)c1CCC(=O)NCc1ccccc1F", "survival": "inactive: 85%"}
{"smiles": "Cc1cc(N(C(=O)Cn2nnc3ccccc32)C(C(=O)NCC2CCCO2)c2ccc(F)cc2)ccc1-n1cnnn1", "note": "(stereo not drawn)", "survival": "inactive: 59%"}
{"smiles": "O=C(O)CC1NC(=S)N(Cc2ccccc2)C1=O", "note": "(stereo not drawn)", "survival": "inactive: 91%"}
{"smiles": "CCOc1ccc(CNC(=O)c2sc3ncnc(N(C)C4CCCCC4)c3c2C)cc1", "survival": "inactive: 98%"}
